{
  "source": "PubChem BioAssay AID624417",
  "about": "(National Center for Advancing Translational Sciences (NCATS), 2012)",
  "note": "Several values for one entry are separate records, joined by “and”; a condition that tells them apart may be missing. Identical values can stand only once. The whole screen tested about 410,000 compounds, of which about 6,400 (1.6%) were called active. The shares of active, inactive and inconclusive entries below differ from those in the screen. Calls come from the whole dose curve; as a rule, active = well fitted inhibition curve with a large enough effect; inconclusive = small, poorly fitted or top-dose-only effect; inactive = no such curve, though single readings can be large or run the other way. A potency beside an inconclusive call is a rough fit, not a confirmed value. Potency is the fitted concentration of half-maximal effect; tags give direction and shape of the fitted curve.",
  "data": [
    {"biological_target": "Glucagon-like peptide 1 receptor (Homo sapiens) (UniProt P43220)", "sequence (P43220 whole entry, looked up)": "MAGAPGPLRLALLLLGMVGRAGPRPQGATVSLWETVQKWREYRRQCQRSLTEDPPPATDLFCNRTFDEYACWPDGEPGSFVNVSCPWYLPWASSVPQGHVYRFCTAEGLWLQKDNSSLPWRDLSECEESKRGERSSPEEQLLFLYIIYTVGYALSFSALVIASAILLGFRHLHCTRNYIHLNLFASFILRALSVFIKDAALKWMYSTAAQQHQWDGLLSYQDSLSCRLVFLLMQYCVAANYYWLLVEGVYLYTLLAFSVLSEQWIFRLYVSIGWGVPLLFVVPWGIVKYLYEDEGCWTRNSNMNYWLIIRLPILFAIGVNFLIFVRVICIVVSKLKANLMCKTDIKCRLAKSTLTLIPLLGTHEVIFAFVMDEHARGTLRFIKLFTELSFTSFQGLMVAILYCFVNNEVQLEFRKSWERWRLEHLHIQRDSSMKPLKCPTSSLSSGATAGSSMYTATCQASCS", "test": "qHTS of GLP-1 Receptor Inverse Agonists (Inhibition Mode); note: nearly all actives have a fitted effect of over 55% in size", "details": "HEK293 GLP-1R CRE-luciferase, luminescence, 24 h, GLP-1R form is constitutively active; series mostly up to 38.3 µM", "in_short": "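Seeding at 200 cells/uL, 12 h culture, 24 hr compound treatment, then luciferase reagent and a luminescence read; cells are HEK293 stably expressing a constitutively active GLP-1R plus cAMP-responsive luciferase.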", "values": [
      {"smiles": "COc1ccccc1C1Nc2ccccc2NC2=C1C(=O)CC(C)(C)C2", "note": "(stereo not drawn)", "Potency": "inconclusive: 28.2 µM [inhibitor, single point]"},
      {"smiles": "CC1=CC(C)C2(CO)COC(c3ccccc3O)C1C2C", "note": "(stereo not drawn)", "Potency": "inconclusive: 8.91 µM [inhibitor, partial curve, poor fit]"},
      {"smiles": "Cc1ccc(Cl)cc1N1CCN(S(=O)(=O)N2CCCCC2)CC1", "Potency": "inconclusive: 28.2 µM [inhibitor, single point]"},
      {"smiles": "O=C(c1ccc(S(=O)(=O)N2CCCCCC2)cc1)N1CCC(CN2C(=O)c3cccc4cccc(c34)C2=O)CC1", "Potency": "inconclusive: 3.55 µM [inhibitor, full curve]"},
      {"smiles": "COc1ccc(C2CC(=O)N(Cc3cccc(F)c3)c3ccccc3S2)cc1", "note": "(stereo not drawn)", "Potency": "inconclusive: 28.2 µM [inhibitor, single point]"},
      {"smiles": "CCCCCCCCNC(=S)NCCN1CCCCC1", "Potency": "inconclusive: 3.55 µM [inhibitor, full curve, poor fit]"},
      {"smiles": "CC(C)c1ccc(NC(=O)C2CCCN(S(=O)(=O)c3ccc4c(c3)C(C)(C)C(=O)N4C)C2)cc1", "note": "(stereo not drawn)", "Potency": "inconclusive: 31.6 µM [inhibitor, partial curve, poor fit]"},
      {"smiles": "Cc1nc2ccccc2n1Cc1ccccc1Br", "Potency": "inconclusive: 2.82 µM [inhibitor, partial curve, poor fit]"},
      {"smiles": "COc1ccccc1Nc1nn2c(=O)c3ccc(C(=O)N4CCCC(C)C4)cc3nc2s1", "note": "(stereo not drawn)", "Potency": "inconclusive: 12.6 µM [inhibitor, partial curve, poor fit] and inconclusive: 10 µM [inhibitor, partial curve, poor fit]"},
      {"smiles": "CCOc1ccc(/C=C/C(=O)c2c(O)c3ccccc3oc2=O)cc1", "Potency": "inconclusive: 28.2 µM [inhibitor, single point]"},
      {"smiles": "Cc1ccc(S(=O)(=O)NC2c3cccc4cccc(c34)C2Sc2nncn2C)cc1", "note": "(stereo not drawn)", "Potency": "inactive"},
      {"smiles": "CCOC(=O)c1c(NC(=O)CSc2nnc(C)s2)sc2c1CCC(CC)C2", "note": "(stereo not drawn)", "Potency": "inconclusive: 28.2 µM [inhibitor, single point]"},
      {"smiles": "O=[N+]([O-])c1cccc(/C=N/Nc2nc(C(Cl)(Cl)Cl)nc3ccccc23)c1", "Potency": "inconclusive: 11.2 µM [inhibitor, single point]"},
      {"smiles": "COc1ccc(CNC(=O)c2c3c(nc4ccccc24)C(=O)N(C2CCCCC2)C3)cc1", "Potency": "inconclusive: 0.794 µM [inhibitor, full curve, poor fit]"},
      {"smiles": "COc1cccc(CNC(=O)c2nn(-c3ccc(C)cc3)c(=O)c3c2c2ccccc2n3C)c1", "Potency": "inconclusive: 11.2 µM [inhibitor, single point]"},
      {"smiles": "COc1ccccc1-n1cnc2cc(NCc3cccs3)ccc21", "Potency": "inconclusive: 1 µM [inhibitor, full curve, poor fit]"},
      {"smiles": "CCN(CC)CCCN=C1N[C@@H](c2ccccc2)C(C(=O)OC)=C(C)N1CC", "Potency": "inconclusive: 12.6 µM [inhibitor, single point]"},
      {"smiles": "Cc1[nH]c2ccccc2c1SCCNC(=O)c1ccc(S(=O)(=O)N2CCCC2)cc1", "Potency": "inconclusive: 28.2 µM [inhibitor, single point]"},
      {"smiles": "CC(=O)c1cccc(NC(=S)NCc2ccccc2)c1", "Potency": "inactive"},
      {"smiles": "CCc1ccc(C(=O)NN(C(=O)c2ccc(CC)cc2)C(C)(C)C)cc1", "Potency": "inconclusive: 7.94 µM [inhibitor, partial curve]"},
      {"smiles": "CCOC(=O)c1scc(-c2ccccc2)c1S(=O)(=O)Nc1cc(Cl)c(OC)cc1OC", "Potency": "inconclusive: 28.2 µM [inhibitor, single point]"},
      {"smiles": "O=C(Nc1ccccc1)OCc1cn(-c2ccc(Cl)cc2)nn1", "Potency": "inconclusive: 7.08 µM [inhibitor, partial curve, poor fit]"},
      {"smiles": "Cc1ccc(-c2nc(CS(=O)CC(=O)NCCCN3CC(C)CC(C)C3)c(C)o2)cc1", "note": "(stereo not drawn)", "Potency": "inconclusive: 10 µM [inhibitor, partial curve, poor fit]"},
      {"smiles": "Cn1c(-c2ccc3c(c2)OCO3)cnc1NCc1ccccc1Cl", "Potency": "inconclusive: 10 µM [inhibitor, partial curve, poor fit]"},
      {"smiles": "FC(F)Oc1ccc(/C=N/NC(=S)Nc2cc(C(F)(F)F)ccc2Cl)cc1", "Potency": "inactive"},
      {"smiles": "CCCOc1ccc(S(=O)(=O)NNC(=O)c2cc3ccccc3o2)cc1", "Potency": "inconclusive: 28.2 µM [inhibitor, single point]"},
      {"smiles": "O=C(C1CC1)N1CCc2cc(S(=O)(=O)NCCCN3CCCCC3)ccc21", "Potency": "inconclusive: 3.55 µM [inhibitor, full curve, poor fit]"},
      {"smiles": "CC1CC(C)CN(S(=O)(=O)c2ccc(C(C)(C)C)cc2)C1", "note": "(stereo not drawn)", "Potency": "active: 2 µM"},
      {"smiles": "CCN1CCN(CCCNC(=O)c2cc3sccc3n2CC)CC1", "Potency": "inactive"},
      {"smiles": "CC(C)CCNc1ncnc2c1cnn2Cc1ccccc1Cl", "Potency": "inconclusive: 3.55 µM [inhibitor, partial curve, poor fit]"},
      {"smiles": "COc1ccc2c(c1)C(=O)N1[C@H]3c4cc(Br)ccc4OC[C@@H]3[C@H](c3ccccc3)[C@]1(C)C(=O)N2", "Potency": "inconclusive: 12.6 µM [inhibitor, partial curve, poor fit]"},
      {"smiles": "Cc1cnc(C(=O)NC(Cc2ccccc2)c2ccccc2)cn1", "note": "(stereo not drawn)", "Potency": "inconclusive: 31.6 µM [inhibitor, single point]"},
      {"smiles": "Cc1cc(C(=O)N2CCN(c3ccc(C(F)(F)F)cn3)CC2)c(C)o1", "Potency": "inconclusive: 11.2 µM [inhibitor, single point]"},
      {"smiles": "Cc1ccc(C)c(NC(=S)NC(NC(=O)N(C)C)C(Cl)(Cl)Cl)c1", "note": "(stereo not drawn)", "Potency": "inactive"},
      {"smiles": "Cc1ccc(C(=O)NCCCNC(=O)c2ccco2)cc1", "Potency": "inactive"},
      {"smiles": "COC(=O)c1cc(=O)n(CCc2ccc(OC)cc2)c(=Nc2ccc(F)c(Cl)c2)s1", "Potency": "inconclusive: 3.55 µM [inhibitor, full curve, poor fit]"},
      {"smiles": "Cn1nc(C2CC2)cc1NC(=O)C1(C)CCN1C(=O)Cc1ccc(-c2ccccc2)cc1", "note": "(stereo not drawn)", "Potency": "inconclusive: 28.2 µM [inhibitor, single point]"},
      {"smiles": "O=C(Nc1cnc2ccccc2c1)c1cccnc1", "Potency": "inconclusive: 14.1 µM [inhibitor, single point]"},
      {"smiles": "Cc1cccc(NC(=S)/N=C(\\N)Nc2nc(C)c3ccccc3n2)c1", "Potency": "inconclusive: 12.6 µM [inhibitor, single point]"},
      {"smiles": "CC(C)(C)c1ccc(S(=O)(=O)NNC(=O)c2cc3ccccc3[nH]2)cc1", "Potency": "inconclusive: 8.91 µM [inhibitor, partial curve, poor fit]"},
      {"smiles": "Cc1cc(NC(=O)c2ccc3c(c2)OCCO3)ccc1NC(=O)c1cc2ccccc2o1", "Potency": "inconclusive: 11.2 µM [inhibitor, partial curve, poor fit]"},
      {"smiles": "O=C(/C=C/c1ccc(S(=O)(=O)NCc2ccco2)cc1)NCc1ccccc1Cl", "Potency": "inconclusive: 12.6 µM [inhibitor, partial curve, poor fit]"},
      {"smiles": "CCOC(=O)c1ccc(N=c2sc(C(=O)OC)cc(=O)n2CCCN2CCOCC2)cc1", "Potency": "inconclusive: 14.1 µM [inhibitor, single point] and inconclusive: 10 µM [inhibitor, partial curve, poor fit]"},
      {"smiles": "CCCCC(=O)Nc1ccc(S(=O)(=O)N2CCCCC2c2cccnc2)cc1", "note": "(stereo not drawn)", "Potency": "inconclusive: 28.2 µM [inhibitor, single point]"},
      {"smiles": "Cc1ccc(N=C2NC(=O)/C(=C/c3cccn3C)S2)cc1", "Potency": "inactive"},
      {"smiles": "Cc1ccc(S(=O)(=O)N2[C@@H](c3ccccc3F)C(C(=O)O)=CC[C@H]2c2ccc(Cl)cc2)cc1", "Potency": "inconclusive: 10 µM [inhibitor, partial curve, poor fit]"},
      {"smiles": "CCOC(=O)C1CCN(C2=NC(=O)/C(=C/c3ccc(Cl)cc3)S2)CC1", "Potency": "inactive"},
      {"smiles": "Cc1c(C(=O)Nc2ccc3nc(N4CCOCC4)sc3c2)oc2ccccc12", "Potency": "inconclusive: 22.4 µM [inhibitor, single point]"},
      {"smiles": "CCC(C)(C)c1ccc(Oc2ccc(NC(=O)COC(=O)C3=COCCO3)cc2)cc1", "Potency": "inconclusive: 28.2 µM [inhibitor, single point]"},
      {"smiles": "O=S(=O)(c1cccc(C(F)(F)F)c1)N1CCN(C(=S)NCc2ccco2)CC1", "Potency": "inconclusive: 10 µM [inhibitor, partial curve, poor fit]"},
      {"smiles": "CCOc1ccc(NC(=O)c2ccc3c(c2)CCN3S(=O)(=O)CC)cc1", "Potency": "inactive"},
      {"smiles": "C[C@@H]1CN([C@H](C)CO)C(=O)Cc2cc(NC(=O)Nc3ccccc3)ccc2O[C@@H]1CN(C)Cc1ccc2c(c1)OCO2", "Potency": "inconclusive: 12.6 µM [inhibitor, partial curve, poor fit]"},
      {"smiles": "O=C(c1ccc(COc2ccc(Cl)cc2Cl)o1)N1CCCC1", "Potency": "inconclusive: 28.2 µM [inhibitor, single point]"},
      {"smiles": "CC(C)(C)OC(=O)NCc1ccc(CNC(=O)c2[nH]cnc2C(=O)N[C@@H](Cc2ccccc2)C(=O)OC(C)(C)C)cc1", "Potency": "inconclusive: 22.4 µM [inhibitor, single point]"},
      {"smiles": "NS(=O)(=O)c1ccc(Sc2nc3ccccc3s2)c([N+](=O)[O-])c1", "Potency": "inconclusive: 5.62 µM [inhibitor, full curve, poor fit]"},
      {"smiles": "O=C(CC1C(=O)N(c2ccccc2)C(=O)N1Cc1ccc(F)cc1)Nc1cccc(F)c1", "note": "(stereo not drawn)", "Potency": "inconclusive: 28.2 µM [inhibitor, single point]"},
      {"smiles": "COc1ccc2c(c1)[C@H]1[C@H](CO2)[C@H](c2ccccc2)[C@]2(C)C(=O)Nc3cc(F)ccc3C(=O)N12", "Potency": "inconclusive: 25.1 µM [inhibitor, single point]"},
      {"smiles": "CCCCCCCNC(=O)C1(CC2CC(c3ccc(Cl)cc3)=NO2)CCN(C(=O)Cc2ccc(F)cc2)CC1", "note": "(stereo not drawn)", "Potency": "inconclusive: 10 µM [inhibitor, partial curve, poor fit]"}
    ]}
  ]
}
